# According to PubChem BioAssay AID1745853 (National Center for Advancing Translational Sciences (NCATS), 2022):
# Some of the results follow. Further columns of the screen follow, without active or inactive calls.
# What was measured:
# Test in all cases: Primary Screen for Target Class Profiling of Small Molecule Inhibitors of Methyltransferases
# [1] = biological target: Glycine N-methyltransferase (Homo sapiens) (UniProt Q14749); settings: purified enzyme, MTase-Glo SAH luminescence; measured here: GNMT inhibition; at 40 µM; stronger effect = lower value
# Procedure, shortened: (§1)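 Each enzyme was assayed with SAM and its substrate. SAH formation detected by MTase-Glo luminescence; single-point 40 uM screen[…].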
# [2] = biological target: Guanidinoacetate N-methyltransferase (Homo sapiens) (UniProt Q14353); settings: purified enzyme, MTase-Glo SAH luminescence; measured here: GAMT inhibition; at 40 µM; stronger effect = lower value
# Procedure, shortened: as §1
# [3] = biological target: Histamine N-methyltransferase (Homo sapiens) (UniProt P50135); settings: purified enzyme, MTase-Glo SAH luminescence; measured here: HNMT inhibition; at 40 µM; stronger effect = lower value
# Procedure, shortened: as §1
# [4] = biological target: Nicotinamide N-methyltransferase (Homo sapiens) (UniProt P40261); settings: purified enzyme, MTase-Glo SAH luminescence; measured here: NNMT inhibition; at 40 µM; stronger effect = lower value
# Procedure, shortened: as §1
# [5] = biological target: Phenylethanolamine N-methyltransferase (Homo sapiens) (UniProt P11086); settings: purified enzyme, MTase-Glo SAH luminescence; measured here: PNMT inhibition; at 40 µM; stronger effect = lower value
# Procedure, shortened: as §1
# % is scaled to controls: 0 for no effect and ±100 for the full control effect.
SMILES,"activity change, negative = inhibition [1] [%]","activity change, negative = inhibition [2] [%]","activity change, negative = inhibition [3] [%]","activity change, negative = inhibition [4] [%]","activity change, negative = inhibition [5] [%]"
CC(=O)C1CCC2(C)C3=C(CCC12C)C1(C)CCC(=O)C(C)(C)C1CC3 (stereo not given),1.99,1.66,14.8,-15,5.23
CC1(c2noc(C3CC3)n2)CCN(C(=O)CCCc2nc3ccccc3s2)CC1,-5.78,-4.61,-2.47,-12.2,-6.97
CNC(=O)N1CCCC(n2c(C)cnc2-c2ccncc2)C1 (stereo not given),-2.5,-6.37,1.03,-2.02,-1.8
Cc1ccccc1Cc1c(C)nc2c(C(=O)N3CCC(Cc4nncn4CC4CC4)CC3)cnn2c1C,-4.7,1.52,-4.23,-22.4,-5.49
CCN(CCCNC(=O)CCCc1nnc2n3nc(C)nc3c3ccccc3n12)c1ccccc1,-14.6,0.973,0.152,15.8,3.79
C/C(=C\CCC(C)CCO)C(=O)OC1(C)CCC2C(C(=O)O)=COC(OC3OC(CO)C(O)C(O)C3O)C21 (stereo not given),1.14,3.3,9.72,-9.37,-5.12
COc1cccc(CNC(=O)NC2CCc3n[nH]c(=O)n3CC2)c1 (stereo not given),-1.86,-1.09,-1.46,-2.78,-4.02
CC(C)CCNC(=O)C1(C)Cn2nc(C(=O)NCCC3=CCCCC3)cc2C(=O)N1C (stereo not given),-2.25,2.59,3,-1.86,-1.12
CN1C(=O)c2cc(C(=O)NCCCc3ccccc3)nn2CC1(C)C(=O)NCc1ccc(F)cc1 (stereo not given),3.48,0,1.6,1.77,1.56
CC1(C(=O)NC2CCCC2)Cn2c(c(-n3cccc3)c3ccccc32)C(=O)N1Cc1ccccc1 (stereo not given),8.56,1.54,5.87,8.42,5.1
CC1(C(=O)NC2CCCCCCC2)Cn2c(ccc2-c2ccco2)C(=O)N1Cc1ccccc1 (stereo not given),-6.56,4.12,-3.56,-12.7,-5.92
O=c1cc(NCCCN[C@@H]2CCOc3c(Br)cc(Br)cc32)[nH]c2ccsc12,-5.47,-15.9,0.137,-48.8,-24.1
O=C(N[C@H](c1cccs1)C1CC(O)C1)c1cnn2cc(CCO)cnc12 (stereo not given in full),-3.07,-5.71,-4.37,-5.61,-0.134
Cc1cc2c(cc3n2CC(C)(C(=O)NC2CCCCCC2)N(Cc2ccc(Cl)cc2)C3=O)o1 (stereo not given),0.292,3.68,2.44,2.41,3.05
COC(=O)c1ccc(C)c2c1C1C=CCC1[C@@H](c1ccc(C(=O)O)cc1)N2 (stereo not given in full),-34.7,3.99,2.68,5.74,-1.95
COc1ccc(-c2cc3n(n2)CC(C)(C(=O)NCc2ccccc2OC)N(CCCc2ccccc2)C3=O)cc1 (stereo not given),8.49,1.45,6.85,8.13,1.63
Cc1ccc(C)c(N2CCN(C(=O)CCc3nnc4n(CC(C)C)c(=O)c5ccccc5n34)CC2)c1,-9.04,0,8.62,-1.09,-1.07
CN(C)CCC=C1c2ccccc2CCc2ccccc21,-3.03,9.48,-51.5,-14.5,2.22
CCOC(=O)c1cccc(N2C(=O)c3cc(C(=O)OCC)nn3CC2(C)C(=O)NCCC(C)C)c1 (stereo not given),-8.29,0.462,-7.82,-8.55,-9.97
N#Cc1c[nH]c2c(C(=O)N3CCN(CCc4ccc(F)cc4)CC3)cccc12,-6.85,-7.14,3.09,-22,-11.8

SMILES,"activity change, negative = inhibition [1] [%]","activity change, negative = inhibition [2] [%]","activity change, negative = inhibition [3] [%]","activity change, negative = inhibition [4] [%]","activity change, negative = inhibition [5] [%]"
O=c1[nH]c2ccc(S(=O)(=O)N3CCCc4ccccc43)cc2[nH]1,3.88,0.642,4.38,-3.24,-15
CCc1noc([C@@H]2CC(F)(F)CN2C(=O)c2cc(C3CC3)[nH]n2)n1,-0.222,-0.591,0.995,1.87,3.84
CCn1nccc1C(=O)N1CCC(Nc2nccnc2OC)CC1,-5.97,-7.22,-2.02,-5.76,-2.16
O=c1c2ccccc2n2c(=O)n(Cc3ccccc3Cl)nc2n1Cc1ccc(F)cc1,4.61,3.17,6.2,8.09,3.91
Cc1[nH]c(=O)c(C#N)cc1-c1ccncc1,1.21,14.7,12.1,-0.939,5.82
CN(Cc1cc(F)c(F)c(F)c1)C1CCc2nn(CC3CC3)c(=O)n2CC1 (stereo not given),-2.96,3.07,3.58,-3.58,1.88
CC(=O)c1ccc(Nc2nc3c(S(=O)(=O)c4ccccc4)nnn3c3ccc(Cl)cc23)cc1,-8.22,0,4.55,-1.15,-1.58
O=C(NC1CCCCC1)c1ccc2c(=O)nc3c(-c4ccccc4)n[nH]n3c2c1,3.36,4.88,3.53,9.55,3.05
COCCCNC(=O)C1(C)Cn2nc(-c3ccccc3)cc2C(=O)N1c1ccc(C)cc1 (stereo not given),-5.42,0.03,-6.43,-11.1,-9.62
CCCCC(=O)N(c1ccc(OC)cc1)S(=O)(=O)c1ccc2c(c1)n(C)c(=O)n2C,-7.09,5.84,-5.47,-15.8,-3.94
CC1(C(=O)NCc2ccc(Cl)cc2)Cn2c(ccc2-c2ccco2)C(=O)N1Cc1ccc(F)cc1 (stereo not given),-8.52,-0.729,-7.83,-11.8,-6.14
Cc1nc([C@@H]2CN(C(=O)c3nn(C)c4ccccc34)C[C@H]2C(N)=O)n[nH]1,-0.958,-0.24,1.61,-3.73,1.72
CC(C)CCNC(=O)[C@H]1CN(Cc2ccccc2)C[C@H]1C(=O)O,-3.99,-3.47,-0.861,2.39,-15.1
COc1ccc(N(C)c2nc(C)nc3ccccc23)cc1,-25,-0.288,4.36,-25.6,-7.45
CC(=O)Nc1c2n(c3ccc(F)cc13)CC(C)(C(=O)NC1CCCCC1)N(C1CCCCCC1)C2=O (stereo not given),-2.12,4.66,4.13,-1.04,0.902
Cc1ccc(-c2cc3c(ccn3C)c(C(=O)NCc3cccnc3)n2)cn1,-19,-15.8,-12.5,-27.4,-17.1
CC(=O)c1cc(C(=O)N[C@@H](C)Cn2ccc(-c3ccc(C#N)c(Cl)c3)n2)[nH]n1,-2.53,3.66,-2.55,-27.2,-7.69
COc1ccc(CCN(Cc2ccccn2)C(=O)[C@H]2CCC[C@H](O)C2)cc1,-6.8,-7.65,-5.25,-11.3,-1.16
Cn1c(=O)c2[nH]cnc2n(C)c1=O,3.93,11.5,12.1,-7.74,0.195
CCN1C(C)(C)CC(Oc2ccc(C(=O)Nc3ccc(NC(=O)Nc4cc(C(C)(C)C)on4)cc3)nc2)CC1(C)C,0.182,-5.83,5.69,-22,-5.65

SMILES,"activity change, negative = inhibition [1] [%]","activity change, negative = inhibition [2] [%]","activity change, negative = inhibition [3] [%]","activity change, negative = inhibition [4] [%]","activity change, negative = inhibition [5] [%]"
CS(=O)(=O)c1ccc(C2=C(c3ccccc3)C(=O)OC2)cc1,-0.676,1.2,3.68,-11.2,-2.91
COc1ccc(CCNC(=O)c2ccc3c(=O)[nH]c4c(C(=O)NCC5CCCO5)sc(=S)n4c3c2)cc1OC (stereo not given),-32.7,3.7,0.214,-12.2,-12.5
CCCCNc1ncc2c(-c3ccc(S(=O)(=O)N4CCOCC4)cc3)nn(C3CCC(O)CC3)c2n1 (stereo not given),-0.107,7.91,5.74,-4.92,-0.326
CC(C)CCNC(=O)C1(C)Cn2c(cc3ccccc32)C(=O)N1c1ccc(F)cc1 (stereo not given),9.27,4.48,10.9,12.2,3.57
C[C@@H]1C(=O)O[C@H]2[C@H](O)C34[C@H]5C[C@@H](C(C)(C)C)C36[C@@H](OC(=O)[C@@H]6O)O[C@@]4(C(=O)O5)[C@@]12O (stereo not given in full),-0.38,4.39,-2.28,-7.48,2.59
COC(=O)c1cc2n(n1)CC(C)(C(=O)NC1CCCCC1)N(Cc1ccc(OC)cc1OC)C2=O (stereo not given),4.67,1.71,9.49,-6.16,3.56
O=C(NCc1ccc2c(c1)OCO2)c1sc(=S)n2c1[nH]c(=O)c1cc3c(cc12)OCO3,-0.053,1.33,7.47,2.36,0.218
Cc1ccc(C(=O)CSc2nnc3n(C)c(=O)c4ccc(C(=O)NC5CCCCC5)cc4n23)c(C)c1,-1.09,0,-2.75,-0.451,0.217
C=C1CC[C@H]2[C@@](C)(CCC(OC3OC(CO)C(O)C(O)C3O)[C@@]2(C)CO)C1C(=O)CC1=CCOC1=O (stereo not given in full),2.62,5.38,6.67,-8.02,6.99
CCCn1c(=O)c2ccccc2n2c(SCC(=O)Nc3ccc(OC)c(OC)c3)nnc12,3.05,6.04,3.81,3.21,3.38
CCN1CCN(CCNC(=O)c2cc3n(n2)CC(C)(C(=O)NC2CCCCC2)N(C)C3=O)CC1 (stereo not given),-1.03,-0.05,-7.43,-1.66,-4.13
COC(=O)c1ccc([C@H]2Nc3ccc(S(=O)(=O)Nc4ccc(C)c(C)c4)cc3[C@H]3C=CC[C@H]32)cc1,-20.5,-6.23,-24.3,-21.4,-22.7
C/C=C1\[C@H](O[C@@H]2O[C@H](CO)[C@@H](O)[C@H](O)[C@H]2O)OC=C(C(=O)OCCc2ccc(O)cc2)[C@H]1CC(=O)OCCc1ccc(O)cc1,-5.42,-11.5,1.48,-15.8,-9.59
C#CCNC(=O)CNC(=O)c1cccc(-c2cc(F)ccc2OC)c1,-4.67,-9.4,-1.18,-9.47,-8.23
CCCCS(=O)(=O)N1CCC(c2nnc(Cn3cncn3)n2C)CC1,-2.65,-1.72,-3,-4.6,1.57
COC[C@]1(O)CCN(C(=O)c2oc(COc3ccccc3)cc2C)CC1(C)C,-1.32,2.01,1.68,-0.084,16.6
CCOc1ccccc1CN1CCCOCCNC(=O)[C@@H]2CCCC[C@@H]21,-7.58,-5.19,-3.06,-3.72,-6.22
CCOc1ccc(CN2C(=O)c3cc4ccccc4n3CC2(C)C(=O)NCc2ccccc2OC)cc1 (stereo not given),5.74,4.53,9.86,5.31,1.63
COc1ccc(CCNC(=O)CCc2nnc3n(Cc4ccc(Cl)cc4)c(=O)c4ccccc4n23)cc1OC,-5.88,0,10.6,-8.72,2.63
